Results taken from paper PMC5430835.
Where two headings read alike, the source gives them in different places. Results are given in words; binding and its absence hold for the method and conditions named. For part of these data: Binding seen in cells or lysates may run through a third protein. Some binding calls cover weakened binding; strength is not graded here. One block for each molecule: values may come before it.

Chains of the proteins cited; added tags and fusions are not shown.
UniProt Q13620: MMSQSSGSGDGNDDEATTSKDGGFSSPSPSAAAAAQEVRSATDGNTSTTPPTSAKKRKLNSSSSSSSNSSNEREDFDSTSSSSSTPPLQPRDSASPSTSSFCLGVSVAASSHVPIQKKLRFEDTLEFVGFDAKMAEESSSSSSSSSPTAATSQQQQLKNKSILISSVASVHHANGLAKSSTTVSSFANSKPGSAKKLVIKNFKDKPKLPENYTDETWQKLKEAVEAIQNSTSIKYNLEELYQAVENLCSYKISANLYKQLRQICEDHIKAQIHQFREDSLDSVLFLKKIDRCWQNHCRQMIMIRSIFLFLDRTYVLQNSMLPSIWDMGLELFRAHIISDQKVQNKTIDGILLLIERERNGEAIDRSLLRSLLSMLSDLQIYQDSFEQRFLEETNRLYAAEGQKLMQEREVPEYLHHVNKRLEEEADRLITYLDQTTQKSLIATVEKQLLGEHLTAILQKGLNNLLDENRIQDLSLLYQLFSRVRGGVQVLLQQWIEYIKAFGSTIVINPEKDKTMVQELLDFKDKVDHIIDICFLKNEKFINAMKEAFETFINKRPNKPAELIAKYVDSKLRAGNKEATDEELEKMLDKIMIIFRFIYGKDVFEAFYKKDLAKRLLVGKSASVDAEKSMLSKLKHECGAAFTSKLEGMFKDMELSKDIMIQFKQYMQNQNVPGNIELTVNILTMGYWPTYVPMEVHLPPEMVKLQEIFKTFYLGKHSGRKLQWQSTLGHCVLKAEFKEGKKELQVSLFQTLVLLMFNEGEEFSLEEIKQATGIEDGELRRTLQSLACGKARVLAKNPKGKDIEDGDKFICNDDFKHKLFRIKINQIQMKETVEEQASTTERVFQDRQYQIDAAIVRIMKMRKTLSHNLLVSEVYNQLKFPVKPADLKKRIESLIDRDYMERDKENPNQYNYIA
UniProt P38936: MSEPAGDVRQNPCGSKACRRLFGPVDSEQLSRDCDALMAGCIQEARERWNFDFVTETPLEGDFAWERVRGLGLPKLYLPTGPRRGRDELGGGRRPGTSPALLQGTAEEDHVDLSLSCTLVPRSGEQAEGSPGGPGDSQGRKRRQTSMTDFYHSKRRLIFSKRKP
UniProt Q16531: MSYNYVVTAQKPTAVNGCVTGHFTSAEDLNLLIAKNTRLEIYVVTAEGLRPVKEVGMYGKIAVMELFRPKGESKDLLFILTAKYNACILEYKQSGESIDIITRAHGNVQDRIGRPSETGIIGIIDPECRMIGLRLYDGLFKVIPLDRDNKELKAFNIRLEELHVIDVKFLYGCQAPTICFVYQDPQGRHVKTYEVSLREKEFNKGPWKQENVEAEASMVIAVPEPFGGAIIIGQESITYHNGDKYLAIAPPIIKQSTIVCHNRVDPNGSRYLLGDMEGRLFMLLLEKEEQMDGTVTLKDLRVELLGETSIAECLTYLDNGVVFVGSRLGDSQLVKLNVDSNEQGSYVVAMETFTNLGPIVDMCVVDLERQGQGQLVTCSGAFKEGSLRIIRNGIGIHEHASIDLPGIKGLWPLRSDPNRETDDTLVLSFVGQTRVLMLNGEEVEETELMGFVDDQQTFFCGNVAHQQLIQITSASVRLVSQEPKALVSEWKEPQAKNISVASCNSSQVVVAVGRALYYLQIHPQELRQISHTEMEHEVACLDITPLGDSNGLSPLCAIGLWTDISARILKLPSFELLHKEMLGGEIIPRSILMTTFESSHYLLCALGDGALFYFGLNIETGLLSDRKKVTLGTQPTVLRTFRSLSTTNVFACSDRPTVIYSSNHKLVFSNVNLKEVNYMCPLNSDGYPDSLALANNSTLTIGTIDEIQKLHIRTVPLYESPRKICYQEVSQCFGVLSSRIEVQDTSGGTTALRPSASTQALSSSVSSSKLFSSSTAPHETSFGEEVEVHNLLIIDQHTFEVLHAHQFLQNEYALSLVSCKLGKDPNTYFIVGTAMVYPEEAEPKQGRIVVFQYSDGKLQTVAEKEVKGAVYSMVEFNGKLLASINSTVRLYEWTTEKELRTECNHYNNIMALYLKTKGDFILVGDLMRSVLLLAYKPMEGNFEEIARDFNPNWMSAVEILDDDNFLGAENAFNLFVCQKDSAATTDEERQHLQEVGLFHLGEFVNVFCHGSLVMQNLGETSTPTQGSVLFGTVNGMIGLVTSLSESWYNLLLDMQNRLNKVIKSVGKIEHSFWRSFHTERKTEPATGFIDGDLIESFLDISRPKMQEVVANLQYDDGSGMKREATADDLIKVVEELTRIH
UniProt Q66K64: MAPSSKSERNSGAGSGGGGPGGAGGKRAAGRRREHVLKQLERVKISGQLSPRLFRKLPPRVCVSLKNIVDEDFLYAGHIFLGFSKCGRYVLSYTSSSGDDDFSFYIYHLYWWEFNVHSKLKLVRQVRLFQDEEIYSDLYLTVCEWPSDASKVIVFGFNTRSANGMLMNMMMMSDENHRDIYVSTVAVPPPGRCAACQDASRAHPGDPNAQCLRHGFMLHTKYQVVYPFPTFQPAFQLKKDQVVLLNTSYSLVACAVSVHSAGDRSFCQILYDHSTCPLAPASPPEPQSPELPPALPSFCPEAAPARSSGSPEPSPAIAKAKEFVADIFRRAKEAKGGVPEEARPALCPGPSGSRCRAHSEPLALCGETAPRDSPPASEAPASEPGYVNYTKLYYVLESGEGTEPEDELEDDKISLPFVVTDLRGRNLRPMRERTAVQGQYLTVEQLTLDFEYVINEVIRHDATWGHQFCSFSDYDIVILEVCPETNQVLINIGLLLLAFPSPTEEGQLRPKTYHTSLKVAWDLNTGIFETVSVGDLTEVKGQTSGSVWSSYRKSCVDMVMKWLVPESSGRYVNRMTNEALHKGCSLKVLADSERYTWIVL

How the values were obtained:
[1] = biological target: Flag-tagged CUL4B (Cullin 4B) (human) (UniProt Q13620); assay: co-IP; pCDNA3-CUL4B-Flag transfected into hFOB1.19, U2OS or Saos-2 cells, 48 h; anti-Flag agarose; immunoblot for endogenous partners
[2] = biological target: CUL4B in pGBKT7 (yeast two-hybrid bait) (human) (UniProt Q13620); assay: two-hybrid; yeast AH109; pGBKT7 bait and pGADT7 prey; growth on medium lacking Trp, Leu and His
[3] = biological target: Flag-tagged CUL4B (Cullin 4B) (human) (UniProt Q13620); assay: co-IP; pCDNA3-CUL4B-Flag transfected into hFOB1.19, U2OS or Saos-2 cells, 48 h; anti-Flag agarose; immunoblot for endogenous partners; remark: listed apart in the source
[4] = biological target: Flag-tagged p21 (UniProt P38936); assay: co-IP; pCDNA3-p21-Flag transfected into hFOB1.19, U2OS or Saos-2 cells, 48 h; anti-Flag agarose; immunoblot for endogenous DCAFs
[5] = biological target: p21 in pGBKT7 (yeast two-hybrid bait) (UniProt P38936); assay: two-hybrid; yeast AH109; pGBKT7 bait and pGADT7 prey; growth on medium lacking Trp, Leu and His

Molecule: DDB1 in pGADT7 (yeast two-hybrid prey) (from UniProt Q16531 1-1140)
binding [2]: binds

B1: DCAF4 (protein, UniProt Q8WV16 1-495)
chain: MNKSRWQSRRRHGRRSHQQNPWFRLRDSEDRSDSRAAQPAHDSGHGDDESPSTSSGTAGTSSVPELPGFYFDPEKKRYFRLLPGHNNCNPLTKESIRQKEMESKRLRLLQEEDRRKKIARMGFNASSMLRKSQLGFLNVTNYCHLAHELRLSCMERKKVQIRSMDPSALASDRFNLILADTNSDRLFTVNDVKVGGSKYGIINLQSLKTPTLKVFMHENLYFTNRKVNSVCWASLNHLDSHILLCLMGLAETPGCATLLPASLFVNSHPGIDRPGMLCSFRIPGAWSCAWSLNIQANNCFSTGLSRRVLLTNVVTGHRQSFGTNSDVLAQQFALMAPLLFNGCRSGEIFAIDLRCGNQGKGWKATRLFHDSAVTSVRILQDEQYLMASDMAGKIKLWDLRTTKCVRQYEGHVNEYAYLPLHVHEEEGILVAVGQDCYTRIWSLHDARLLRTIPSPYPASKADIPSVAFSSRLGGSRGAPGLLMAVGQDLYCYSYS
binding [3]: binds
binding [4]: no binding

Results, then the molecule that gave them:

binding [1]: no binding
Molecule: DCAF15 (from UniProt Q66K64 1-600)

binding [1]: binds
Molecule: DDB1 (DNA damage binding protein 1) (from UniProt Q16531 1-1140)

binding [5]: no binding
B2: DCAF4 in pGADT7 (yeast two-hybrid prey) (protein, UniProt Q8WV16 1-495)
chain: MNKSRWQSRRRHGRRSHQQNPWFRLRDSEDRSDSRAAQPAHDSGHGDDESPSTSSGTAGTSSVPELPGFYFDPEKKRYFRLLPGHNNCNPLTKESIRQKEMESKRLRLLQEEDRRKKIARMGFNASSMLRKSQLGFLNVTNYCHLAHELRLSCMERKKVQIRSMDPSALASDRFNLILADTNSDRLFTVNDVKVGGSKYGIINLQSLKTPTLKVFMHENLYFTNRKVNSVCWASLNHLDSHILLCLMGLAETPGCATLLPASLFVNSHPGIDRPGMLCSFRIPGAWSCAWSLNIQANNCFSTGLSRRVLLTNVVTGHRQSFGTNSDVLAQQFALMAPLLFNGCRSGEIFAIDLRCGNQGKGWKATRLFHDSAVTSVRILQDEQYLMASDMAGKIKLWDLRTTKCVRQYEGHVNEYAYLPLHVHEEEGILVAVGQDCYTRIWSLHDARLLRTIPSPYPASKADIPSVAFSSRLGGSRGAPGLLMAVGQDLYCYSYS
